Measurements taken from the RNAGym collection of RNA variant scans (doi:10.7554/elife.90254).
The source gives no read counts; variants with many changes may rest on few reads.

B1: LINE1-full (parent)
chain: UACGUAGGUGGUUUUCCCCUGAUAGUGCUAAGGGGGCCUGGAAGUUUGGACUGGGCAGAGCUCAACACAGCGUGGCAAAGUGGCUGUGGCUAGACUGCCUCUCUGGAUUCCUCGUCACUCAGCAGGGCAUCUCUGAGAGAAAUGCC

Variants of: B1
Test: self-cleavage, relative activity (ratio to wild type); higher = more cleavage; in vitro, sequencing; the parent is a self-cleaving ribozyme

| Variant | self-cleavage |
| --- | --- |
| U26C A50G G106A A124G A136G | 0.54 |
| G27A U62C A107G A124G U130C | 0 |
| U29A A43G A67G G75A C101U U130C | 0.78 |
| U26C U45A U46C U62C G75A G135A | 0.04 |
| U26G C37A A140G | 0.29 |
| U26C U87C U100A | 0 |
| U26C U102A C133U A140G | 0.3 |
| C28U A50U A78G | 0.72 |
| U26C G34A U39A U46C | 1.72 |
| G27A A69U A78U A142G | 0.03 |
| U26C A77G A136U | 1.22 |
| U26C U47A U52C U73A | 0.5 |
| U26G U39A U96C A141G | 0.2 |
| U26A A50U G58A A140U | 0.03 |
| A24U U39C U46C U73A | 2.08 |
| U26A G58U U119C | 0.09 |
| U26C U47C C84U | 0.2 |
| G27A U45C A94G C101U | 0.16 |
| G27A U112C U132C C145U | 1.13 |
| U26A A43U A107G A142G | 1.13 |
| A24U U29A G33U | 0.92 |
| U26G U39C U108C | 2.21 |
| G25U A50G A69U U104C | 0.2 |
| U26A U73C A94G A138G | 0 |

| Variant | self-cleavage |
| --- | --- |
| U26G U87C U104C | 0 |
| C28A U47A G122U | 1.1 |
| A24U C101U C131U U143C | 1.06 |
| U26A C63G A69C U115C | 0.15 |
| U26C U47A U81C | 1.19 |
| U26C U39C G74A | 1 |
| U26A A59G G60U | 0.04 |
| A24U G32A A57G A79G | 0.42 |
| U26C A92G G93A A124C | 0 |
| U26G A64G G144A | 0.18 |
| U29A G32U A117C A140G | 1.53 |
| U26A U46C U81A A121U | 1.5 |
| U26G G41A A59U G127A | 0.65 |
| U26C G82A U100C U112C | 1.58 |
| U26A U46C U52A A67C | 0.12 |
| U26C A77U U134A | 0.55 |
| U26C A107G U119C | 0.33 |
| C28U U119C A121U A136C | 1.27 |
| U26C U62C U85A A142G | 0.07 |
| U26C U45C A140G | 0.67 |
| U29A A31U A124G | 0.34 |
| U26C G41A G60A | 0.02 |
| U26A U62C A65U | 0.03 |
| G27A U112A A124U A140G | 1.62 |

| Variant | self-cleavage |
| --- | --- |
| U29C A30G A117G G125U | 0.81 |
| G27A G106A A141G | 1.27 |
| U26C A57U A124G A140G | 0 |
| U29A C37U U102A U119C A129U | 1.76 |
| U26C U46C A77U A121G | 0.47 |
| G25A U85A G105U U115A A138G | 0.06 |
| G25U A43G U46A U85A | 0.06 |
| C28A G36A A117G | 1.11 |
| C28A U45C A141G | 1.3 |
| U26C U45C A138G C146U | 0.69 |
| U26C U46A U100C U115C A124U | 2.42 |
| U29A A42G U46A A65G A78U | 0.1 |
| C28U U102A U115A U130C A141G | 1.81 |
| U26A U45C A78U | 1.74 |
| C28U A30G G32C A64G | 0.12 |
| G27A U119C A141G A142U | 0.98 |
| U26A A31G A57U A79G | 0.2 |
| A24U U52A A78G A79G U108A U132C | 1.53 |
| U26C G35U A43U U115A A138G | 1.27 |
| U26A U85C A142G | 0.31 |
| U29A U91C U112C U115C | 0 |
| U26A A94C U115C | 0 |
| C28U C101A A129G | 1.3 |
| U26G A69G U81C | 2.04 |

| Variant | self-cleavage |
| --- | --- |
| U26C A77G U134A | 2.46 |
| U26A A129G U130C A140G | 0.94 |
| U26C A42G U45C | 0.38 |
| U26C C71U A79G | 1.03 |
| U26A U73A A77U A140G | 0.86 |
| U26A A78G U108C | 1.93 |
| U26C U115A A141G | 1.31 |
| U26C G32A A42U A107G | 0.43 |
| U26C A31G A65G U112A | 0 |
| U29A C101A A129U | 0.82 |
| U26A A57U G58A | 0 |
| U26A C38U A59G U96C U104C U115A | 0.18 |
| U26C U47A A117G | 1.36 |
| U26A U52C A121U A142U | 0.63 |
| U26C G35A G55A A64G A79G | 0.1 |
| U26C U47A U134A | 1.41 |
| U26C U29C U45A C68A C133A | 0.04 |
| U29A A43G A50G G54A G125U | 0.12 |
| U26C C37G U47A | 1.32 |
| U26C A67G U81A U85C | 0 |
| A24U U39A U46C C103U U115C | 1.19 |
| U29A A57U A121G | 0.2 |
| U26C U46C C84A | 0.09 |
| U26C A43G A78U U115A | 2.08 |

| Variant | self-cleavage |
| --- | --- |
| C28U A57G U102C A138C | 0 |
| G27A A43U A59G A69C U134C | 0 |
| U26A C84A U115A U143C | 0.06 |
| U29A G83C A117G A136G | 0.88 |
| G27A G36U C101U U112C A121G | 1.29 |
| U26C G27A C28A A117U | 0.85 |
| G25C C133U U134A | 0.99 |
| G25A U96C G126A | 0.14 |
| U26A A50U A57G | 0.46 |
| U26A A117G C123G A124G | 1.34 |
| U26C U39G U130A | 2.18 |
| C28G A57U G137A | 0.15 |
| G25A U47C A57G A136G | 0.38 |
| G27A G55U A129G | 0.16 |
| U26G A64U U85C U100A A129U | 0.11 |
| U26C A42G A50G A140G | 0 |
| U29A A57G U130G | 0 |
| G25A U39A U46C C123U | 2.21 |
| G27A U46C A57U U91A | 0.08 |
| A24U G60A A67G U73C U102C | 0 |
| C28U G32A U39C U62A A65U U85C | 0 |
| U26C A57G U73C | 2.3 |
| U26C G32U U91C | 0 |
| U26C A129G A140G | 1.36 |

| Variant | self-cleavage |
| --- | --- |
| U26C U62C A65G | 0 |
| U26C C95A A142G | 0.05 |
| G27A U39C U52A C123U A129G C131U U134G | 1.1 |
| U26C U29C U91C | 0.95 |
| U26C A92U G125U A138G | 0.74 |
| C28U U52G A78G A141G | 1.88 |
| A24U G27C A57G U130C A141U | 1.84 |
| U26A A121G C145A | 1.05 |
| U26C U45C A78G U130C | 0.77 |
| U26G A43U A67U | 0.14 |
| U26G U100C A138G | 2.7 |
| U29A A79G A136G | 0.66 |
| G27A U46A G106U U115C | 0.97 |
| U26A U115C G125U A141G | 1.36 |
| U26A U87A U104C U115C | 0 |
| G27A A59G U87C U108C | 0 |
| G25A U26A A65G | 0.06 |
| U26G G44A U100C U119C | 1.05 |
| U26A G35A U45A A59G U85G U87C G89U | 0.07 |
| C28U A64U A65U U73C | 0.04 |
| A24U U102A A107G U109C | 0.97 |
| U26C A31G A59G U81A A94U U104C A142C | 0 |
| U26A A57G G72A A129G | 0.68 |
| G25U A30G A107U | 1.14 |

| Variant | self-cleavage |
| --- | --- |
| U29A G88A A121G | 0.13 |
| U26A A42U A77G | 0.76 |
| U26A A50G C56U U87A | 0.04 |
| C28A A59G U104A | 0.07 |
| U26C G35A A107G U112C | 0.88 |
| U26G A117U A136U | 1.44 |
| U29A C63U U100C | 0.41 |
| U26C U52C A65U U115C | 0 |
| C28A C84U U100C | 0.44 |
| U26C A57G U102C | 0.42 |
| G25A U26G A124C | 0.98 |
| U26C U45A G53A | 0.91 |
| U26G A31U C56U A59G A138G A141G | 0.11 |
| G25U G82A U102C A136G | 1.18 |
| C28U U102C A117C A141U | 1.37 |
| U26C U73A A94G U104A U130C | 0.54 |
| G27A U109C A141G | 1.28 |
| U26C A59G U87A | 0 |
| U26C A42G G114A A138U | 0.3 |
| U26A G75A U81C U108C | 0.37 |
| C28A A69G A117G | 0.35 |
| U26A U91C A140G | 0.06 |
| U26A C38U U112C U130C | 1.27 |
